Results taken from ChEMBL document CHEMBL1157539, “Thousands of chemical starting points for antimalarial lead identification” (Nature, 2010).
Whole data set: some 13,000 compounds, median “IFI” near 4, cut for the highest 2% near 17. The list shows a part of the results.

experiment: GSK_TCMDC: Inhibition Frequency Index (IFI). The number of non-kinase HTS assays where a compound showed > 50 % inhibition, expressed as a percentage of the number of such assays in which the compound was tested (-0 is zero); format: functional

| Compound | IFI [%] |
| --- | --- |
| O=[N+]([O-])c1cnc(Nc2ccccc2O)nc1Nc1ccccc1O | 19.2 |
| CCCCCCCc1c(C)nc2c(OC)cccc2c1O | 0.71 |
| Cc1cc(OC(C)C(=O)N2CCc3ccccc32)ccc1Cl (stereo unspecified) | 1.71 |
| COc1ccc2nccc([C@@H](O)CN3CCC(NC(=O)c4ccc(OC)c(N)c4)CC3)c2c1 | 1.48 |
| Cc1ccc(CCC(C)NCC(O)c2cccc(Cl)c2)cc1 (stereo unspecified) | 2.96 |
| N#Cc1ccc(CN2CCC(Oc3ccc(NC(=O)c4cccs4)cc3)C2)cc1 (stereo unspecified) | 1.56 |
| Cc1cccc(-c2nn(-c3ccccc3)c3[nH]c(=O)c(CN4CCSCC4)cc23)c1 | 1.82 |
| O=C(/C=C/c1ccc(Cl)c(Cl)c1)NCCCCCCN1CCN(C(=O)Nc2ccc(C(F)(F)F)cc2)CC1 | 7.03 |
| CC(C)COc1ccc(Cl)cc1Cc1nc(-c2nc3ccc(CN4CCN(C)CC4)cc3[nH]2)co1 | 5.81 |
| CC(=O)N/N=C/[C@H](CCc1ccccc1)NC(=O)[C@H](CC(C)C)NC(=O)c1ccc(F)cc1 | 5.5 |
| CN(C)Cc1ccc(CN2CCN(CCOc3ccc(-c4ccc(Cl)cc4)cc3)CC2)o1 | 13.2 |
| COc1cc(NC(=O)/C=C/c2cc(F)cc(F)c2F)cc(OCCN2CCC3(CC2)OCCO3)c1 | 1.46 |
| O=C(/C=C/c1ccc(Cl)c(Cl)c1)NCCCCCN1CCCN(C(=O)Nc2ccc(OC(F)F)cc2)CC1 | 6.71 |
| CCCC(=O)NC(c1ccc(C(C)C)cc1)c1ccc2cccnc2c1O (stereo unspecified) | 5.11 |
| O=C(/C=C/c1ccc(C(F)(F)F)cc1)N1CCc2cc3nccc(N4CCN5CCC[C@H]5C4)c3cc21 | 0.74 |
| N=C(N)c1ccc(OCCCCCOc2ccc(C(=N)N)cc2)cc1 | 2.34 |
| CCOC(=O)c1cn(CC)c2cc(N3CCCCC3)c(F)cc2c1=O | -0 |
| COc1ccccc1NC(=O)CSc1nc2cccnc2n1-c1ccccc1OC | 1.43 |
| COc1ccc(CCNC(=O)c2cnc3c(c2)nc(-c2c[nH]c(-c4ccccc4)n2)n3CCc2c[nH]cn2)cc1 | 1.49 |
| Cc1cc(Nc2c(C(N)=O)cnc3cc(-c4ccoc4)ccc23)ccc1N1CCN(C)CC1 | 2.8 |
| O=C(c1ccc(-c2cnc3[nH]cc(-c4ccc(C(=O)N5CCOCC5)cc4)c3c2)cc1)N1CCOCC1 | 0 |
| O=C(Nc1cc(Oc2ccc(O)cc2)cc([N+](=O)[O-])c1)c1cc(-c2ccc(F)cc2)no1 | 6.38 |
| CCCc1cnc2nc(N)nc(N)c2c1C | 2.17 |

| Compound | IFI [%] |
| --- | --- |
| CCN(CC)CCNC(=O)c1ccc(N/C=C2\C(=O)Nc3ccc(S(=O)(=O)Cc4c(Cl)cccc4Cl)cc32)cc1 | 8.33 |
| Cc1ccc(Nc2nccc(NCC(O)c3ccc(C(F)(F)F)cc3)n2)cc1 (stereo unspecified) | 9.18 |
| Cc1nc2cc(/C=C/C(=O)NC3CCC(CCN4CCc5ccc(C#N)cc5CC4)CC3)ccc2[nH]1 (stereo unspecified) | 0.76 |
| O=C(Cn1c(CCc2cccc(F)c2F)cc(=O)c2cccnc21)N(CCn1ccnc1)Cc1ccc(-c2ccc(C(F)(F)F)cc2)cc1 | 0.72 |
| O=C(NCc1ccco1)c1ccc(S(=O)(=O)c2ccc(Cl)cc2)cc1 | 0.9 |
| CCCCOc1c(CCNCCCCNCCc2cc(OC)c3ccccc3c2OCCCC)cc(OC)c2ccccc12 | 15 |
| O=C(Nc1ccccc1)N(Cc1cccc(-c2cccc(CNCCc3ccccc3)c2)c1)C1CCN(Cc2ccccc2)CC1 | 12.3 |
| CCOc1cc(Br)c(C(C)NC(=O)c2ccccc2)cc1OCC (stereo unspecified) | 0 |
| Fc1ccc(-c2nc(NCc3cccc(C(F)(F)F)c3)nn2-c2cccc(C(F)(F)F)c2)cc1C(F)(F)F | 0 |
| Oc1ccc(CNCCCCCCNCCc2ccc(Cl)cc2)cc1O | 2.21 |
| Cc1cccc2nc(-c3cccc(-c4cccc(CNCc5cccc(N)c5)c4)c3)[nH]c12 | 4.76 |
| COc1cc2nc(NCCc3ccccc3)nc(NCc3cc(C)no3)c2cc1OC | 3.88 |
| CCCCCCOc1ccc(C(=O)NCCCC2CCN(CCCCCNC(=O)C=Cc3ccc(Cl)c(Cl)c3)CC2)cc1 | 5.34 |
| COc1nc2c(CCN3CCC(NCc4ccc5c(c4)NC(=O)CO5)CC3)c(Cl)cnc2cc1F | 2.9 |
| COc1ccc(CNc2nc(NCc3ccc(C(F)(F)F)cc3)c3cc(OC)c(OC)cc3n2)cc1OC | 14.8 |
| NC(=O)c1ccsc1NC(=O)CNC(c1ccccc1)c1ccc(Cl)cc1 (stereo unspecified) | 4.6 |
| COc1cc(C)nc2ccc(NC(=O)Nc3cccc4ccccc34)cc12 | 1.41 |
| CCN(c1ccccc1)S(=O)(=O)c1ccc(NC(=O)c2cc(-c3cc(C)ccc3O)n[nH]2)cc1 | 1.05 |
| COc1ccc(CNC2CCN(C)CC2)cc1-c1ccc(S(=O)(=O)NCc2ccccc2)c(C)c1 | 9.52 |
| CC1CCCCC1N(C)C1CCN(CCCNC(=O)C=Cc2ccc(Cl)cc2Cl)CC1 (stereo unspecified) | 11.1 |
| Cc1ccc(O)c(-c2cc(C(=O)Nc3ccc(S(=O)(=O)N4CCCC(C)C4)cc3)[nH]n2)c1 (stereo unspecified) | 5.8 |
| COc1ccc2nccc([C@@H](O)CN3CCC(NC(=O)C(c4cc5ccccc5o4)N4CCC(Cc5ccccc5)CC4)CC3)c2c1 (stereo partly specified) | 3.47 |
| CC(C)C[C@H](NC(=O)c1ccc(OCCN2CCOCC2)cc1)C(=O)N[C@H](/C=N/NC(=O)OC(C)(C)C)CCc1ccccc1 | 5.45 |

| Compound | IFI [%] |
| --- | --- |
| CC(C)(C)c1ccc2nccc(Nc3cccc(O)c3)c2c1 | -0 |
| CN1CCCN(Cc2ccc(-c3ccc(NC(=O)c4ccc(Cl)cc4)cc3)cc2)CC1 | 7.07 |
| COc1ccc2c(=NN=C(C)c3ccccn3)cc(C)[nH]c2c1 | 4.96 |
| CCn1c2ccccc2c2cc(C=NN=c3cc(C)[nH]c4ccccc34)ccc21 | 9.93 |
| N=C(N)NCCCC(=O)NCC(N)=O | 0.72 |
| Cn1c(=N)n(CC(=O)OCc2ccc(OCc3ccccc3)cc2)c2ccccc21 | 2.22 |
| CCCCCCN1CCN(Cc2cccc(NC(=O)c3ccc(Cl)c(Cl)c3)c2)CC1 | 11.2 |
| CC(C)Oc1ccc2c(c1)OC(c1ccccc1)(C(F)(F)F)NC2=O (stereo unspecified) | 2.78 |
| CC(C)CN(Cc1c(O)ccc2[nH]c(-c3ccc(F)cc3F)nc12)CC(C)C | 0 |
| CCc1cccc(-n2c(=O)c3cccnc3n2CC(=O)NCc2ccccc2Cl)c1 | -0 |
| O=C(Nc1cccc(CN2CCCN(Cc3ccc(F)cc3)CC2)c1)c1ccc(Cl)c(Cl)c1 | 6.12 |
| O=C(/C=C/c1ccc(CNCCN2CCOCC2)cc1)NCCc1ccccc1 | 0 |
| Cc1nc2ccccc2c(=O)n1NCc1ccc(Cl)c(Cl)c1 | 0.7 |
| O=[N+]([O-])c1ccc2nc(Nc3ccc(Cl)c(Cl)c3)c(Nc3ccc(Cl)c(Cl)c3)nc2c1 | 2.86 |
| CCCN1CCN(CC(O)CNC(=O)Nc2ccc(Cl)cc2)CC1 (stereo unspecified) | -0 |
| O=C(Nc1cccc(C(F)(F)F)c1)NC1CCN(c2ccnc3cc(Cl)ccc23)CC1 | 4.76 |
| NCc1ccc(CNCc2cccc(-c3ccc(-c4nc5cc(C(F)(F)F)ccc5[nH]4)cc3)c2)cc1 | 14.8 |
| COc1c(C2CCN(CCCCNC(=O)C=Cc3ccccc3C(F)(F)F)CC2)ccc2c1CCCC2 | 11.1 |
| O=C(CCc1ccccc1)N[C@H](Cc1c[nH]c2ccccc12)C(=O)N1CCC(NCc2ccc3c(c2)Cc2ccccc2-3)CC1 | 8.76 |
| COc1ccc(CNC(=O)c2cc3c(=O)n4ccccc4nc3n(CCc3ccccc3)c2=N)cc1 | 4.27 |
| CC12CN3CC(C)(CN(C1)C3c1cc(Br)ccc1O)C2O (stereo unspecified) | -0 |
| Cc1cc(OCCCN2CCCCC2)ccc1NC(=O)COc1ccc(Cl)cc1C(=O)c1cc(Cl)cc(C#N)c1 | 7.14 |
| C=CC[C@H](C[C@H](O)[C@H](Cc1ccccc1)NC(=O)c1nn(-c2ccccc2)nc1C)C(=O)NC1CCCCC1 | -0 |

| Compound | IFI [%] |
| --- | --- |
| CC1CCN(CC[C@H]2CCCN2S(=O)(=O)c2cccc(NC(=O)c3cc4ccccc4s3)c2)CC1 | 4.93 |
| Cc1cccc2nc(-c3cccc(-c4ccc(NC(=O)c5cccc(C(N)=O)c5)cc4)c3)[nH]c12 | 3.81 |
| O=S(=O)(Nc1cccc(CCN2CCCCC2CCN2CCCC2)c1)c1ccc2ccccc2c1 (stereo unspecified) | 13.1 |
| CCOC(=O)c1nc(-c2ccccc2)[nH]c1-n1nc(C)cc1C | 0 |
| Cc1cc2nc(-c3ccc(C(=O)NCc4ccc(Cl)c(Cl)c4)cc3)[nH]c2cc1C | -0 |
| COc1c(C2CCN(CCCCNC(=O)c3ccc(-c4ccc(Cl)cc4)cn3)CC2)ccc2c1CCCC2 | 10.6 |
| Cc1cc(NC(=O)Nc2ccc(N(C)C)cc2)c2cc(Cl)ccc2n1 | 4.44 |
| CC(C)CNCc1ccc(-c2cccc(CN(C(=O)NCCc3ccccc3)C3CCN(Cc4ccccc4)CC3)c2)cc1 | 7.19 |
| COC(=O)c1cccc(CNCc2ccc(-c3ccc(-c4nc5cccc(C)c5[nH]4)cc3)cc2)c1 | 5.88 |
| CCCc1cc(=O)[nH]c(-n2nc(C)cc2NC(=O)c2cc3ccccc3o2)n1 | 11.5 |
| CN(C)c1ccc(C=Cc2nc(=O)c3ccccc3o2)cc1 | 5.15 |
| CCN(CC)Cc1cc(NC(=O)c2ccccc2O)ccc1Oc1ccc(Cl)cc1 | 5.52 |
| N#Cc1ccccc1C1CCN(C2CCC(Nc3cc(-c4cccnc4)ccn3)CC2)CC1 (stereo unspecified) | -0 |
| CCCCNc1c(CC)c(C)c(C#N)c2nc3ccccc3n12 | 2.26 |
| CS(=O)(=O)CCNCc1ccc(-c2ccc3c(Nc4ccc(Oc5ccccn5)cc4)ccnc3c2)o1 | 3.7 |
| Cc1[nH]cnc1-c1cccc(NC(=O)c2cc3ccccc3s2)c1 | 3.51 |
| Oc1ccc(CCNCc2ccc(OCc3ccccc3)c(OCc3ccccc3)c2)cc1 | 5.41 |
| Nc1nc(N)c2c(n1)CCc1cc(Br)ccc1-2 | 2.9 |
| CCCCCCNC(=O)C1Cc2c([nH]c3ccc(Br)cc23)C2(CCN(Cc3ccccc3)CC2)N1 (stereo unspecified) | 8.45 |
| CC[C@H](C)CNC(=O)c1cncc(-c2cccc(CN3CCC(N4CCCC4)CC3)c2)c1 | 1.64 |
| CC(C)(C)c1ccc(-c2nc3c(ccc4nc(N)nc(N)c43)[nH]2)cc1 | 14.2 |
| O=C(Nc1ccc(N2CCN(Cc3ccccc3Cl)CC2)cc1)c1ccc([N+](=O)[O-])o1 | 16 |
